Hit rate of the full screen: of about 390,000 compounds, about 17,000 (4.4%) were called active. Inconclusive results, whose numbers are uncertain, are shown with a selection of clear calls. Calls follow the shape of the dose curve; as a rule, active = well fitted inhibition curve with a large enough effect; inconclusive = small, poorly fitted or top-dose-only effect; inactive = no such curve, though single readings can be large or run the other way. Potencies beside an inconclusive call are fits to weak or partial responses and may not hold up.
These molecules were tested against Lysine-specific demethylase 4A (Homo sapiens) (UniProt O75164) (assay: qHTS Assay for Inhibitors of JMJD2A-Tudor Domain). Settings: AlphaScreen JMJD2A-Tudor / H3K4me3 peptide binding; series mostly up to 114 µM.
Chain of UniProt O75164 (O75164 whole entry, looked up, the tested form may be a part): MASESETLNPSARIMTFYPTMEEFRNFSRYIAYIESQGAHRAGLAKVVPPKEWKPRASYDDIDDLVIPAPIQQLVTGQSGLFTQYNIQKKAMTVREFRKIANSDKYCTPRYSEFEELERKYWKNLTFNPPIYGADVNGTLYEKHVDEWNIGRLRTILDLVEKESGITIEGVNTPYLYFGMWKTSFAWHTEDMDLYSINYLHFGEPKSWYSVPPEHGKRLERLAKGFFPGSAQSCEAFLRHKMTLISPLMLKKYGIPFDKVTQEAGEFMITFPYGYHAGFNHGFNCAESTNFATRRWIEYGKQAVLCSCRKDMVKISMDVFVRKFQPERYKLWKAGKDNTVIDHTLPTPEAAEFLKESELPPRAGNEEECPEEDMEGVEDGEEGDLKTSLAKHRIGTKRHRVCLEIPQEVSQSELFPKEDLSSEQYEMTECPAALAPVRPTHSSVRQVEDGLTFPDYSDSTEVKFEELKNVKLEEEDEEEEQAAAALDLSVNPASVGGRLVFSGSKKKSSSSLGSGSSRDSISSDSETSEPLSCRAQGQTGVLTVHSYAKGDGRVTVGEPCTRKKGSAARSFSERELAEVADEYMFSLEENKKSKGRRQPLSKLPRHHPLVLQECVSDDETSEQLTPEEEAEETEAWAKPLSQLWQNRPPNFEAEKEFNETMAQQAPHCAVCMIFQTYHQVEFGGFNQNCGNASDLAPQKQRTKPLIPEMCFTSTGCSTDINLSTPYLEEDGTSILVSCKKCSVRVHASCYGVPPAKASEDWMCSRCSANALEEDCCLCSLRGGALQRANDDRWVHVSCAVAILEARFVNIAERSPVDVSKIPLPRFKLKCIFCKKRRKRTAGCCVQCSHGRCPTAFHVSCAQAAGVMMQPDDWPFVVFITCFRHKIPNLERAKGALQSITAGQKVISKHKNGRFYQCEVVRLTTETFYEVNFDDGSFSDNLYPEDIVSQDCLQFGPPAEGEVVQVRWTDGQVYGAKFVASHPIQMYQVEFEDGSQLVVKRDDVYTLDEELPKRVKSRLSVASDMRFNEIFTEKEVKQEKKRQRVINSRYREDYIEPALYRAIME
In the case of O=C1NC(=O)N(Cc2ccccc2)C(=O)/C1=C/N1CCCc2ccccc21, the Potency is reported as inconclusive: 22.4 µM [inhibitor, single point].
In the case of Cc1cc(/C=C2/C(=O)NC(=O)N(Cc3ccco3)C2=O)c(C)n1-c1ccccc1O, the Potency is reported as inconclusive: 22.4 µM [inhibitor, full curve].
With COc1ccccc1CCNCc1cccc(C(F)(F)F)c1 the Potency was “inactive”.
For Cc1cccc(N2C(=O)/C(=C/c3ccc(N4CCN(C)CC4)o3)C(=O)NC2=S)c1C, the Potency was inconclusive: 50.1 µM [inhibitor, partial curve].
COc1ccc2c(c1)NP(=S)(c1ccccc1)N2 (configuration not stated) was tested, and the Potency was inconclusive: 70.8 µM [inhibitor, partial curve, poor fit].
With CCCOC(=O)c1ccc(-[n+]2c(-c3ccccc3)cc(-c3ccccc3)cc2-c2ccccc2)cc1 the Potency was inconclusive: 63.1 µM [inhibitor, partial curve, poor fit].
For C[N+]1(CC2COC(c3ccco3)O2)CCCCC1 (configuration not stated), the Potency was inconclusive: 25.1 µM [inhibitor, single point].
In the case of Cc1nnc(N2CCC(C(=O)NCc3ccc(N(C)C)cc3)CC2)c2nn(-c3ccccc3)c(C)c12, the Potency is reported as inconclusive: 39.8 µM [inhibitor, partial curve].
CCN(CC)c1ccc(C=C2C(=O)NC(=S)NC2=O)cc1 was tested, and the Potency was active: 44.7 µM.
COc1ccc(CNCC(=O)N2CCC3(CC2)OCCO3)cc1 was tested, and the Potency was active: 12.6 µM.
For COc1ccc(C(=O)Oc2cccc3cccnc23)cc1S(=O)(=O)N1CCOCC1, the Potency was inconclusive: 56.2 µM [inhibitor, partial curve].
C=CCc1cc(C=C2C(=O)N(C)C(=O)N(C)C2=O)cc(OCC)c1OCc1ccccc1 was tested, and the Potency was inconclusive: 70.8 µM [inhibitor, single point].
In the case of O=c1[nH]c(=O)n(Cc2ccc(F)cc2)c(O)c1C=NCCCO, the Potency is reported as “inactive”.
For CC1(C)c2[nH]c3ccccc3c2C[C@@H]2C(=O)N(Cc3ccccc3F)C(=O)N21, the Potency was inconclusive: 35.5 µM [inhibitor, partial curve].
CN1C(=O)/C(=C/c2ccc(Cl)s2)C(=O)NC1=S was tested, and the Potency was active: 25.1 µM.
With CCC(=O)Nc1cc(C(=O)O)ccc1S(=O)(=O)c1ccc(C)cc1 the Potency was inconclusive: 89.1 µM [inhibitor, single point].
O=C(O)c1ccc(Cl)nc1 was tested, and the Potency was inconclusive: 28.2 µM [inhibitor, partial curve].
Cc1nn(Cc2ccccc2Cl)c(C)c1C(=O)NC1CCCc2ccccc21 (configuration not stated) was tested, and the Potency was “inactive”.
With O=C(NC1CCCCCC1)c1ccc[nH]c1=S the Potency was active: 5.01 µM.
For CCCCC/C(=N/O)c1c(C)[nH]c2ccccc12, the Potency was inconclusive: 10 µM [inhibitor, full curve, poor fit].
In the case of COc1ccc(NC(=O)Nc2cccc3cccnc23)cc1, the Potency is reported as inconclusive: 79.4 µM [inhibitor, partial curve].
Cc1ccnc(NC(=O)CCCc2ccc(N(CCCl)CCCl)cc2)n1 was tested, and the Potency was inconclusive: 79.4 µM [inhibitor, partial curve].
In the case of CCOC(=O)C1CCCN(Cc2ccc(-c3ccccc3)cc2)C1 (configuration not stated), the Potency is reported as active: 28.2 µM.
In the case of COc1ccccc1N1CCN(C2CCN(C(=O)c3cccs3)CC2)CC1, the Potency is reported as active: 7.08 µM.
Nc1ccccc1Nc1ccc([N+](=O)[O-])cc1[N+](=O)[O-] was tested, and the Potency was inconclusive: 50.1 µM [inhibitor, partial curve].
For COc1ccc(-n2c(/C=C/c3ccc(O)c(O)c3)nc3ccccc3c2=O)cc1, the Potency was inconclusive: 22.4 µM [inhibitor, full curve, poor fit].
For Cc1nccc2c1[nH]c1ccc(Br)cc12, the Potency was “inactive”.
With c1ccc(-c2ccc(C(c3ccccc3)n3ccnc3)cc2)cc1 (configuration not stated) the Potency was active: 25.1 µM.
In the case of CC(=O)N1CCN(c2ccc([N+](=O)[O-])cc2C=C2C(=O)NC(=O)NC2=O)CC1, the Potency is reported as “inactive”.
With Cc1cccc(-n2c(-c3cccs3)nc3ccccc3c2=O)c1 the Potency was inconclusive: 28.2 µM [inhibitor, partial curve].
With COc1ccc2[nH]c3c(c2c1)CCN1C(=O)C(CC(=O)NCc2cccc(C(F)(F)F)c2)C[C@H](C(=O)N2CCCCC2)[C@@]31C (some centres not stated) the Potency was inconclusive: 39.8 µM [inhibitor, full curve].
In the case of CCOc1cc2c(cc1OCC)-n1cccc1C(c1ccccc1F)NC2 (configuration not stated), the Potency is reported as inconclusive: 44.7 µM [inhibitor, partial curve].
Cn1c(O)c(C(c2ccccn2)c2c(O)n(C)c(=S)n(C)c2=O)c(=O)n(C)c1=S was tested, and the Potency was active: 3.98 µM.
In the case of c1cncc(C2Nc3cccc4cccc(c34)N2)c1, the Potency is reported as inconclusive: 79.4 µM [inhibitor, partial curve].
For Oc1ccccc1-[n+]1c(-c2ccccc2)cc(-c2ccccc2)c(O)c1-c1ccccc1, the Potency was inconclusive: 25.1 µM [inhibitor, full curve].
In the case of Cc1ccc(NC(=O)COC(=O)CCc2c[nH]c3ccccc23)cc1[N+](=O)[O-], the Potency is reported as inconclusive: 28.2 µM [inhibitor, partial curve].
With Cc1cccc(-n2c(O)c(/C=C3/C(c4ccccc4)=Nc4ccccc43)c(=O)[nH]c2=O)c1 the Potency was inconclusive: 28.2 µM [inhibitor, partial curve].
CN(C)CCN(C(=O)c1cc(Cl)sc1Cl)c1nc2ccc(F)cc2s1 was tested, and the Potency was inconclusive: 22.4 µM [inhibitor, full curve].
For O=[N+]([O-])c1ccc(S(=O)(=O)N2CCn3cccc3C2c2ccccc2F)cc1 (configuration not stated), the Potency was inconclusive: 15.8 µM [inhibitor, full curve].
For Cc1ccccc1C1=NCC(=O)N(CC(=O)NCc2ccco2)c2sc3c(c21)CCCC3, the Potency was active: 89.1 µM.
O=[N+]([O-])c1ccc(C(c2ccc([N+](=O)[O-])cc2)c2ccc([N+](=O)[O-])cc2)cc1 was tested, and the Potency was inconclusive: 8.91 µM [inhibitor, full curve].
With O=C(CCC(=O)N1CCOc2ccc(Cl)cc21)N1CCC2(CC1)OCCO2 the Potency was “inactive”.
For CCCCn1c(O)c(/C=N/NC(=O)c2ccncc2)c(=O)[nH]c1=O, the Potency was inconclusive: 89.1 µM [inhibitor, partial curve].
With CCn1c(C)[n+](CC(O)COCC2CC=CCC2)c2ccccc21 (configuration not stated) the Potency was inconclusive: 79.4 µM [inhibitor, single point].
CN(c1ccccc1)P(=O)(N1CC1)N1CC1 was tested, and the Potency was “inactive”.
CCOc1ccc(NCc2cccn2-c2nnc(N3CCC(C(=O)NCc4ccc(C)cc4)CC3)s2)cc1 was tested, and the Potency was inconclusive: 1.41 µM [inhibitor, full curve].
With Cn1c(=O)c2c(nc(N/N=C/c3c(O)n(-c4ccccc4)c(=S)[nH]c3=O)n2C)n(C)c1=O the Potency was inconclusive: 56.2 µM [inhibitor, partial curve].
In the case of CC1(C)NCCN2C(=O)CSC21 (configuration not stated), the Potency is reported as “inactive”.
CC/C(=N\NC(=S)Nc1ccccc1)c1c(O)[nH]c(=O)[nH]c1=O was tested, and the Potency was “inactive”.
In the case of CC(C)CN(CC(C)C)c1ccc(C=C2C(=O)NC(=S)NC2=O)cc1[N+](=O)[O-], the Potency is reported as active: 35.5 µM.
In the case of CC(C)CC1C(C#N)=C(N)Oc2c1c(=O)oc1ccccc21 (configuration not stated), the Potency is reported as active: 44.7 µM.
In the case of O=C(COC(=O)c1cccc(O)c1)Nc1ccc(Cl)cc1C(=O)c1ccccc1, the Potency is reported as inconclusive: 63.1 µM [inhibitor, partial curve].
With Cc1cc(/C=C2\C(=O)NC(=O)N(Cc3ccccc3Cl)C2=O)c(C)n1-c1ccc(C(=O)O)cc1 the Potency was inconclusive: 31.6 µM [inhibitor, partial curve].
With N#C/C(=C\c1ccc([N+](=O)[O-])cc1)c1nc(C2CC2)cs1 the Potency was inconclusive: 25.1 µM [inhibitor, partial curve].
With O=c1c2ccccc2nc(-c2ccco2)n1-c1nccs1 the Potency was inconclusive: 89.1 µM [inhibitor, single point].
For O=C(c1ccc2c(c1)N(Cc1ccccc1)CCS2)N1CCC2(CC1)OCCO2, the Potency was inconclusive: 89.1 µM [inhibitor, single point].
Cc1ccc(Oc2cc(NN3CCCCC3)c([N+](=O)[O-])cc2[N+](=O)[O-])c([N+](=O)[O-])c1 was tested, and the Potency was inconclusive: 20 µM [inhibitor, partial curve].
For COc1cc(/C=N/Nc2ccc(S(N)(=O)=O)cc2)cc(OC)c1OC, the Potency was inconclusive: 100 µM [inhibitor, single point].
In the case of C[C@]12CCC3C(CC[C@H]4C[C@@H](O)CC[C@]34C)C1CC[C@@H]2OC(=O)[C@H](N)CCCCN (some centres not stated), the Potency is reported as “inactive”.
For CCOc1ccccc1-n1c(O)c(C=Nc2ccc(N(CC)CC)cc2)c(=O)[nH]c1=O, the Potency was inconclusive: 56.2 µM [inhibitor, partial curve].
O=[N+]([O-])c1ccc(N2CCCC(C(F)(F)F)C2)c2ccncc12 (configuration not stated) was tested, and the Potency was inconclusive: 35.5 µM [inhibitor, full curve].
NNCc1cccc(O)c1 was tested, and the Potency was inconclusive: 79.4 µM [inhibitor, partial curve].
In the case of CCCCCSc1cc(OC)c(CCN(C)C)cc1OC, the Potency is reported as inconclusive: 56.2 µM [inhibitor, partial curve].
For CCCCCCn1c(O)c(C=NC2CCCCC2N)c(=O)[nH]c1=O (configuration not stated), the Potency was inconclusive: 56.2 µM [inhibitor, partial curve].
With O=S(=O)(Nc1c(O)ccc2ccccc12)c1ccc(F)cc1 the Potency was inconclusive: 56.2 µM [inhibitor, partial curve].
With COc1ccc(CN2CCN(C(=O)Cc3ccccc3)CC2)c(OC)c1 the Potency was active: 2 µM.
For O=c1c2ccccc2nc(-c2ccc(-c3ccccc3)cc2)n1-c1ccncc1, the Potency was inconclusive: 56.2 µM [inhibitor, partial curve].

Source: PubChem BioAssay AID504339 (National Center for Advancing Translational Sciences (NCATS), 2011)
Also: nearly all actives have a fitted effect of over 50% in size.
Potency is read from the fitted curve at half-maximal effect; tags tell the direction and shape of the fitted curve.
